In all, about 320,000 compounds went through this assay and about 7,600 (2.4%) were called active. The inconclusive results got no clear call from the source; some entries with a clear call stand among them for comparison. Calls follow the shape of the dose curve; as a rule, active = well fitted activation curve with a large enough effect; inconclusive = small, poorly fitted or top-dose-only effect; inactive = no such curve, though single readings can be large or run the other way. No potency is given beside an inconclusive call; the fits are too rough.
Assay: qHTS Assay for NPC1 Promoter Activators; also: nearly all actives have a fitted effect of over 60% in size;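 as to activation: reporter is driven by a mutant NPC1 promoter; % of control where 0% means no effect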
Conditions: Huh7 NPC1 promoter luciferase reporter, 24 h; series mostly up to 9.22 µM; activation: at the top concentration
Summary of the method: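 NPC1 promoter–luciferase Huh7 cells; 24 h compound; luminescence.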
Potency is read from the fitted curve at half-maximal effect; tags tell the direction and shape of the fitted curve.

Compound | Potency | activation
COc1ccc(N/C=C2\CCc3ccccc3C2=O)cc1 | active: 0.251 µM | –
Cc1ccc(C(=O)N2c3ccccc3CC2C)o1 (configuration not stated) | active: 2 µM | –
Cc1cccc(N(CC(=O)Nc2ccc(-c3nc4ccc(C)cc4s3)cc2)S(C)(=O)=O)c1 | inconclusive [activator, single point] | –
Cc1ccc(SCCSc2ncccn2)cc1 | active: 1.26 µM | –
Cc1sc(NC(=S)NC(=O)C(C)(C)C)c(C(N)=O)c1C | inconclusive [activator, partial curve] | –
O=C(Nc1ccccc1)Nc1ccc2ncoc2c1 | inconclusive [activator, single point] | –
Cc1ccc(-c2cc3nc(C)cc(NCc4ccco4)n3n2)cc1 | active: 2.82 µM | –
C/C(=N/OC(=O)CC(C)C)c1cc(-c2ccc(Cl)cc2)no1 | inconclusive [activator, single point] | –
O=C(CNC(=O)c1ccccc1Br)N/N=C/c1ccc(O)cc1 | – | inactive: -2.09%
CC(C)(C)NC(=O)C(=O)N/N=C/c1cccs1 | inconclusive [activator, partial curve] | –
COc1ccc2nc(NC(=O)c3cccnc3SC)sc2c1 | inconclusive [activator, single point] | –
COc1cccc(C(=O)Nc2nnc(-c3ccccc3)s2)c1 | active: 1.41 µM | –
Nc1c(C(=O)Nc2ccccc2)sc2nc(-c3ccco3)ccc12 | inconclusive [activator, partial curve] | –
O=C(NC1CCCCC1)c1ccc(N2CCCC2=O)cc1 | inconclusive [activator, single point] | –
COc1ccc(/C=N/N=C2/SCC(=O)N2Cc2ccccc2)cc1 | active: 3.55 µM | –
CCOCCn1c(N2CCN(c3ccccc3)CC2)nc2c1c(=O)[nH]c(=O)n2C | inconclusive [activator, partial curve] | –
Cc1ccc(/C=N/NC(=O)c2ccc(Br)o2)s1 | inconclusive [activator, partial curve] | –
Cc1csc2nc(COC(=O)c3cccc(N(C)C)c3)cc(=O)n12 | active: 1.41 µM | –
CSCc1c(C(=O)Nc2ccc(N3CCOCC3)cc2)oc2ccccc12 | – | inactive: 7.34%
O=S(=O)(Nc1cccc(-c2cn3c(n2)SCC3)c1)c1ccc(F)cc1F | – | inactive: -1.35%
COc1ccc(C(=O)C2CCCN(C(=O)CCc3scnc3C)C2)c(C)c1 (configuration not stated) | inconclusive [activator, partial curve] | –
O=c1oc2ccccc2cc1-c1nnc(-c2cccc(Br)c2)o1 | inconclusive [activator, partial curve] | –
